In PubChem BioAssay AID1347073 (National Center for Advancing Translational Sciences (NCATS), 2019):
In all, about 45,000 compounds went through this assay and about 200 (0.44%) were called active. Another 7% or so got no clear call; they are omitted. The call rests on the fitted dose curve; in most records, active means well fitted activation curve with a large enough effect; inconclusive means small, poorly fitted or top-dose-only effect; inactive means no such curve, though single readings can be large or run the other way. This is one part of the list.

Assay: qHTS of TDP-43 Inhibitors: NCGC Sytravon Library Screen; further: nearly all actives have a fitted effect of over 55% in size; on growth rescue (activation): 0% is about no effect
Details: yeast TDP-43 toxicity rescue, BacTiter-Glo growth, 24 h; series mostly up to 46.1 µM; growth rescue (activation): at the top concentration
Summary of the method: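 TDP-43-expressing yeast, pregrown in raffinose, seeded at OD600 0.02 in galactose medium with compound for 24 hr at 30 deg C. Growth read by BacTiter-Glo luminescence, so rescue of toxicity appears as activation.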
Potency means the concentration at half of the fitted maximal effect.

Structure (SMILES) | growth rescue (activation) | Potency
Cc1ccc(-c2nnc3c4ccccc4c(C)nn23)cc1NC(=O)c1cccc(Br)c1 | inactive: 1.39% | –
c1ccc(-c2cc3c(N4CCCCC4)ncnc3s2)cc1 | inactive: 27.8% | –
Cc1ccc(C(=O)N/C(=C/c2ccco2)C(=O)N2CCCCCC2)cc1 | inactive: -0.377% | –
COc1ccc(-c2nc(CS(=O)(=O)CC(=O)NCc3ccccc3Br)c(C)o2)cc1 | inactive: 4.02% | –
O=C(COC(=O)CCc1ccccc1)NNC(=O)c1ccccc1 | inactive: -4% | –
CCOc1ccc(NC(=S)N/N=C(\C)Cc2ccc(OC)cc2)cc1 | inactive: 13.2% | –
CCOC(=O)Cc1c(Sc2ccccc2)c2cc(C)ccc2n1C | inactive: 19.2% | –
CC(OC(=O)c1oc2ccccc2c1COc1ccccc1)C(=O)NC(N)=O (stereo not drawn) | inactive: -1.44% | –
COc1ccc(C(=O)C2CCN(CC(=O)Nc3ccc(C)cc3)CC2)cc1 | inactive: -21.2% | –
COc1ccc(OC)c(C2NC(=S)NC(C)=C2C(=O)Nc2ccccn2)c1 (stereo not drawn) | inactive: 6.56% | –
COCCCNC(=S)NCCCNc1nc2cc(C)cc(C)c2cc1C#N | inactive: 23.2% | –
CCN(Cc1ccccc1)CC(O)COC(c1ccc(OC)cc1)c1ccc(OC)cc1 (stereo not drawn) | inactive: 4.68% | –
COC(=O)C1CC(O)CN1C(=O)Nc1cccc(C(F)(F)F)c1 (stereo not drawn) | inactive: -0.695% | –
O=C1CCC(C(=O)N(CCO)Cc2ccccc2)CN1CC1CCCCC1 (stereo not drawn) | inactive: -12% | –
O=C(CNC(=O)c1cccc(OC(F)F)c1)OCC(=O)c1ccccc1 | inactive: 9.93% | –
O=C(Nc1ccc2oc(=O)ccc2c1)c1ccc(-c2ccc(Cl)cc2)o1 | inactive: 4.71% | –
O=C(CSc1nnc(NC(=O)c2cccc(F)c2)s1)NC1CC1 | inactive: 0.819% | –
Cc1ccccc1NCCC(=O)Nc1ccc(F)cc1 | inactive: -0.2% | –
Cc1ccc([N+](=O)[O-])cc1NC(=O)C(C)N1CCCCC1 (stereo not drawn) | inactive: 14% | –
O=C(c1cc2ccccc2oc1=O)N1CCOCC1 | inactive: 13.6% | –
Cc1cc(C(C)(C)C)ccc1OCC(=O)N/N=C\c1c(C)n(C)n(-c2ccccc2)c1=O | inactive: 11.8% | –
Cc1cc(C)c2cc(CN(CCCO)S(=O)(=O)c3ccccc3F)c(=O)[nH]c2c1 | inactive: 0.464% | –
CCCCCCCCCCCCCCCC[n+]1cccc(C(=O)N(CC)CC)c1 | inactive: -94.4% | –
CCOC(=O)/C(=C/c1ccc(Cl)cc1)NC(=O)c1ccco1 | inactive: 0.387% | –
Cc1ccc(C(C)C)c(OCC(O)CN2CCN(c3ccccc3F)CC2)c1 (stereo not drawn) | inactive: 13% | –
O=C1CCCC2=C1C(c1cccc(O)c1)c1c(ccc3ncccc13)N2 (stereo not drawn) | inactive: -5.36% | –
COc1ccc(N=C2SC(CC(=O)Nc3ccccc3)C(=O)N2Cc2ccccn2)cc1 (stereo not drawn) | inactive: 7.35% | –

Structure (SMILES) | growth rescue (activation) | Potency
Cc1cc(NC(=O)c2ccc(COc3ccccc3Cl)o2)no1 | inactive: 8.79% | –
COc1ccc(/C=C2/Sc3ccc(C(=O)N4CCc5ccccc5C4)cc3NC2=O)cc1 | inactive: 22.3% | –
c1cnc2c(-c3ccc4nccn4c3)cccc2c1 | inactive: 8.15% | –
COc1ccc(C(=O)CSc2nnc(CNC(=O)c3ccccc3F)n2C)cc1OC | inactive: -5.91% | –
Cc1ccc(C)c(NC(=O)C(Sc2nnc(-c3cccs3)o2)c2ccccc2)c1 (stereo not drawn) | inactive: 2.79% | –
Cc1ccc(-c2noc(-c3ccccc3C(=O)NCc3ccco3)n2)cc1 | inactive: 27.5% | –
COc1ccc(NC(=O)Cc2cccc(F)c2)cc1S(=O)(=O)Nc1ccccc1Cl | inactive: 35.5% | –
Cc1nc2nc(-c3ccc(Cl)cc3)[nH]n2c(=O)c1Cc1ccccc1 | inactive: 6.36% | –
CCc1ccc(CNc2ccc3c(c2)ncn3C(C)(C)C)cc1 | inactive: 8.36% | –
CC(=O)NC(C)(c1ccccc1)c1nc(-c2ccc(N(C)C)cc2)cs1 (stereo not drawn) | inactive: 13.8% | –
O=c1cc(-c2cccc3ccccc23)[nH][nH]1 | inactive: 19.7% | –
CN(Cc1ccccc1)C(=O)COC(=O)c1cc(NS(=O)(=O)c2cccs2)ccc1O | inactive: 8.19% | –
CCCCCC(=C/c1ccccc1)/C=N/Nc1ccc(S(=O)(=O)N2CCOCC2)cc1[N+](=O)[O-] | inactive: 3.47% | –
Cc1ccc2nc(SC(C)C(=O)NC3CCCC3)[nH]c2c1 (stereo not drawn) | inactive: 5.16% | –
Cc1cc(C(=O)OCC(=O)c2ccc(Cl)c([N+](=O)[O-])c2)c2cccc(C)c2n1 | inactive: 24% | –
CC(C)N(C(=O)COC(=O)[C@@H]1CC(O)CN1S(=O)(=O)c1ccc(C(C)(C)C)cc1)C(C)C (stereo partly drawn) | inactive: 2.25% | –
Cc1ccc(-n2c(SCC(=O)Nc3cccc(S(=O)(=O)NC4=NCCCCC4)c3)nc3ccccc3c2=O)cc1 | inactive: 10.7% | –
Cc1nnc(SCC(=O)Nc2nonc2C)s1 | inactive: -4.23% | –
O=C(Nc1cccc2nsnc12)c1cccnc1Cl | inactive: 23.4% | –
Cc1c(CC(=O)NCC(=O)NCC(=O)O)c(=O)oc2cc3oc4c(c3cc12)CCCC4 | inactive: -1.45% | –
CN(CCC#N)C(=O)COC(=O)c1ccc2[nH]c3c(c2c1)CCCC3 | inactive: 1.31% | –
Cc1ccc(C(=O)CSc2nnc3c4ccccc4nc(C(C)(C)C)n23)cc1 | inactive: -0.469% | –
COC(c1ccccc1)c1nnc(CCC(=O)NC2CCCCC2)o1 (stereo not drawn) | inactive: 14.6% | –
O=C(O)CN(c1ccccc1)S(=O)(=O)c1cc(C(F)(F)F)cc(C(F)(F)F)c1 | inactive: -7.82% | –
COc1ccc(S(=O)(=O)N(C)CC(=O)NCCCn2ccnc2)cc1Cl | inactive: 11.6% | –
O=C1CC(N2CCN(c3cccc(C(F)(F)F)c3)CC2)C(=O)N1c1ccccc1F (stereo not drawn) | – | active: 15.8 µM
